From PubChem BioAssay AID360 (National Center for Advancing Translational Sciences (NCATS), 2006)
Among all 48,000 compounds or so, about 550 (1.1%) were called active. Not shown: some 4% with an inconclusive outcome. No stated cut-off is given here; in the data, active means potency below about 15 µM; inconclusive means mostly about 16 µM to 33 µM; inactive means weaker than that. The list shows a part of the results.

Molecular target: Lysosomal acid glucosylceramidase (Homo sapiens) (UniProt P04062)
Test: Glucocerebrosidase;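 further: the screen sought inhibitors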
Settings: purified enzyme, resorufin glucoside fluorescence (screen aimed at inhibitors), 20 min
Procedure, shortened: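 Wild-type enzyme at 0.2 nM final in 50mM citric acid/KH2PO4, 10mM sodium taurocholate, 0.01% tween-20, pH 5.9, with resorufin beta-D-glucopyranoside at 30 uM final. Compounds titrated, 20 min at RT, red fluorescence read; AC50 from titration.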
Potency means the concentration at half of the fitted maximal effect.

Chain of UniProt P04062 (P04062 whole entry, looked up): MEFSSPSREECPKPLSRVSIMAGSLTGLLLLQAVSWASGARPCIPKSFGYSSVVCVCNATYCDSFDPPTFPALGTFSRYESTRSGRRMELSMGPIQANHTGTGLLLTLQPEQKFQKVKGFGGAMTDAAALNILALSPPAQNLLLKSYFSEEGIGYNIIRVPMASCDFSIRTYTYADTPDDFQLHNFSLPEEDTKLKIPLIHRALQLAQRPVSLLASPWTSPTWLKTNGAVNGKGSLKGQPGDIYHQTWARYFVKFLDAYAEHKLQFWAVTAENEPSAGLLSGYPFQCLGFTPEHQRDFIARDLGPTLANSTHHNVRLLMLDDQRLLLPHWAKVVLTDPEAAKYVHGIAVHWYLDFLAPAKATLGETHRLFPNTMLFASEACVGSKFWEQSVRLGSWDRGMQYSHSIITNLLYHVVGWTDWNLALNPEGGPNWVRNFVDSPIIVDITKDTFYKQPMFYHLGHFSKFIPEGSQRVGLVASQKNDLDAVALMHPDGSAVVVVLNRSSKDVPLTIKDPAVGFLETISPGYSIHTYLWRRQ

Potency, inactive:
CC(C)n1c(SCC(=O)Nc2ccc3c(c2)OCO3)nc2c1c(=O)n(C)c(=O)n2C > 76.9 µM, COc1ccc(N(Cc2cc3ccccc3[nH]c2=O)C(=O)C2CCCO2)cc1 (stereo not drawn) > 76.9 µM, Cc1cccc2cc(CN(Cc3cccs3)Cc3nnnn3Cc3ccccc3)c(=O)[nH]c12 > 76.9 µM, O=C(CSc1nnc(C2CC2)n1Cc1ccccc1)N1CCN(S(=O)(=O)c2ccccc2)CC1 > 76.9 µM, COC(=O)c1ccc(CSc2nnnn2-c2ccc(C)cc2C)o1 > 76.9 µM, Cc1cccc(-c2c3c(=O)n(C)c(=O)n(C)c3c3c(C)cc(C)nn23)c1 > 76.9 µM, CCCCNC(=O)c1nnn(-c2ccccc2)c1N > 76.9 µM, Cc1ccc2cc3cc(C(=O)N4CCCCC4C)oc3nc2c1 (stereo not drawn) > 76.9 µM, Cc1ccccc1C(=O)Nc1cccc(-c2nnc(SCC(=O)O)n2C)c1 > 76.9 µM, C=C(C)COc1ccc(-c2nc(N)ncc2Oc2ccccc2OC)c(O)c1 > 76.9 µM, Cc1c(Nc2cc(=O)oc3ccccc23)c(=O)n(-c2ccccc2)n1C > 76.9 µM, COC(=O)c1[nH]c2ccc(C)cc2c1NC(=O)CCN1CCN(Cc2ccc3c(c2)OCO3)CC1 > 76.9 µM, CC(=O)NC(CCS(C)(=O)=O)C(=O)Nc1ccccc1C (stereo not drawn) > 76.9 µM, Cc1ccc(-c2nnn(CC(=O)NCC3COCCO3)n2)o1 (stereo not drawn) > 76.9 µM, CCCNC(=O)N1CCN(S(=O)(=O)c2ccc(C)c(C)c2)CC1 > 76.9 µM, CC(C)C1N=C2c3ccccc3N=C(SCC(=O)NCCc3ccc(S(N)(=O)=O)cc3)N2C1=O (stereo not drawn) > 76.9 µM, COc1ccccc1OCCn1c(CO)nc2ccccc21 > 76.9 µM, COc1ccc2c(=O)c3c(=O)n(Cc4ccco4)c(-c4ccccc4)nc3oc2c1 > 76.9 µM, CCCn1c(=O)c2ccccc2n2c(SCC(=O)/C(C#N)=C(\C)N)nnc12 > 76.9 µM, COCCNC(=O)CN(C(=O)CCC(=O)Nc1cc(C)on1)c1cccc(C)c1C > 76.9 µM, CCCC(=O)Nc1cc(-c2nn(C)c(=O)c3ccccc23)ccc1N1CCCCC1 > 76.9 µM, CCc1nnc(NC(=O)c2c(O)c3cccc4c3n(c2=O)CC4)s1 > 76.9 µM, Nn1c(SCC(=O)NC2CCCCC2)nnc1-c1ccc(Cl)cc1 > 76.9 µM
